Among all 410,000 compounds or so, about 7,200 (1.8%) were called active. Inconclusive results, whose numbers are uncertain, are shown with a selection of clear calls. The call rests on the fitted dose curve; in most records, active means well fitted activation curve with a large enough effect; inconclusive means small, poorly fitted or top-dose-only effect, or another doubt; inactive means no such curve, though single readings can be large or run the other way. Potencies of inconclusive entries are left out as doubtful fits.
Experiment: qHTS of TDP-43 Inhibitors; further: nearly all actives have a fitted effect of over 50% in size
Details: TDP-43 expressing yeast growth rescue, BacTiter-Glo, 24 h; series mostly up to 46.1 µM
In short: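 Galactose-induced TDP-43 yeast, OD600=0.02, compound pinned; 24 hr, 30 deg C; BacTiter-Glo luminescence for growth. Inhibitors of TDP-43 toxicity read as activators.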
Potency means the concentration at half of the fitted maximal effect; tags describe the fitted curve by direction and shape.

Structure (SMILES) | Potency
Clc1ccc(-c2nnc(C3CC3)o2)cc1 | inactive
CCc1ccc(-c2nc3cc(NC(=O)c4ccc(C)c(C)c4)ccc3o2)cc1 | inactive
CC1Cc2ccccc2N1C(=O)c1ccc(F)c(S(=O)(=O)N2CCOCC2)c1 (configuration not stated) | inactive
COc1ccc(C(=O)CSc2nc(=O)n3ccc(C)cc3n2)cc1 | inconclusive [activator, partial curve]
COc1ccc(N2CCN(C(=O)COc3ccc(Cl)cc3Cl)CC2)cc1 | inconclusive [activator, single point]
COc1ccc(N2CCN(C(=O)c3ccccc3)CC2)c([N+](=O)[O-])c1 | inconclusive [activator, single point]
O=C1CC(c2ccc(Cl)c([N+](=O)[O-])c2)c2ccc3ccccc3c2N1 (configuration not stated) | inactive
COc1ccccc1CNC(=O)COC(=O)c1cccs1 | inconclusive [activator, full curve, poor fit]
Cc1cccc(-n2ncc3c(NNC(=O)c4ccccc4Cl)ncnc32)c1 | inconclusive [activator, partial curve]
CN1/C(=C/C(=O)c2ccc(Cl)cc2)Sc2cc3c(cc21)OCO3 | inconclusive [activator, full curve, poor fit]
COc1cc(NC(=O)Cc2noc3ccccc23)cc(OC)c1OC | inactive
CC(=O)Nc1ccc(C(=O)N2CCCC(c3cc(C(=O)NCc4ccccc4)no3)C2)cc1 (configuration not stated) | inconclusive [activator, single point]
Cc1cc(C)cc(-n2ccnc2SCC(=O)Nc2ccccc2F)c1 | inconclusive [activator, partial curve]
O=C(CNC(=O)c1ccco1)OCC(=O)c1cccc2ccccc12 | inconclusive [activator, partial curve]
COc1ccc(C(=O)c2cn(Cc3ccccc3OC)c3cc4c(cc3c2=O)OCO4)cc1 | inactive
Cc1nc2cc(Cl)c(Cl)cc2n1-c1ccccn1 | active: 12.6 µM
CC1CCCCC1NC(=O)COC(=O)Cc1ccc(Cl)cc1 (configuration not stated) | inconclusive [activator, partial curve]
CCN(CC)C(=O)c1sc2c(c1C)c(=O)n(-c1ccc(OC)cc1OC)c(=O)n2CC(=O)Nc1ccccc1 | inconclusive [activator, partial curve]
N#Cc1nc(-c2ccccc2F)oc1NC1CCCCC1 | inconclusive [activator, partial curve]
COc1ccc(CNC(=O)Cn2cccc2C(=O)c2ccccc2C)cc1 | inconclusive [activator, partial curve]
CCOC(=O)c1cnc(-n2nc(C)cc2C)nc1Nc1ccc(OC)cc1 | inconclusive [activator, partial curve]
O=S(=O)(NCC(c1ccccc1)N1CCc2ccccc21)c1ccc(Cl)cc1 (configuration not stated) | inactive
Cc1ccc(-c2nc(N)s[n+]2-c2ccccc2)cc1 | inconclusive [activator, single point]
CCNc1c(NS(=O)(=O)c2ccc(Cl)s2)c(=O)oc2ccccc12 | inactive

Structure (SMILES) | Potency
COc1ccc(-c2ccc(C(=O)Nc3cccc(NS(C)(=O)=O)c3)c3occc23)c(C)c1 | active: 14.1 µM
O=C1N[C@@H](Cc2c[nH]c3ccccc23)COC(=O)[C@H](Cc2ccc(F)cc2)C/C=C\C[C@H]1CC(=O)N(CCO)Cc1ccccc1 | inactive
Cc1noc(-c2ccccc2OC(=O)c2ccccc2)n1 | inconclusive [activator, partial curve]
Cc1ccc(OCCn2c(C3CC(=O)N(Cc4ccc(F)cc4)C3)nc3ccccc32)c(C)c1 (configuration not stated) | inconclusive [activator, single point]
CCOc1cc(C(=O)OCc2ccc(C(=O)OC)o2)cc(Br)c1OC | inconclusive [activator, single point]
Cc1ccc(C)c(N2CCN(C(=O)c3c(C)oc4nc(C)nc(N5CCOCC5)c34)CC2)c1 | inactive
CCCCC(=O)OC1=CN(Cc2ccccc2)S(=O)(=O)c2ccccc21 | inactive
Cc1ccc(-n2nnnc2SCC(=O)NCCc2ccccc2)cc1C | active: 22.4 µM
S=C(NCc1cccs1)Nc1ccc(Br)cc1Cl | active: 35.5 µM
CCc1ccc(NC(=O)c2cnn3ccccc23)cc1 | inconclusive [activator, single point]
O=C(Nc1ccccc1)c1cc(C2CCCN(C(=O)CCc3ccccc3)C2)on1 (configuration not stated) | active: 17.8 µM
CCOC(=O)C1CCN(C(=O)Nc2ccccc2Cl)CC1 | inconclusive [activator, full curve, poor fit]
O=[N+]([O-])c1ccc(/C=N/Nc2nc(N3CCCCC3)nc(N3CCCCC3)n2)o1 | inconclusive [activator, partial curve]
O=c1oc2ccccc2c2[nH]ccc12 | inactive
CC(NC(=O)COc1ccc(-c2ccccc2)cc1)C1CCCO1 (configuration not stated) | inconclusive [activator, single point]
Cc1ccc2nc(-c3ccco3)c(Cc3cccc(Cl)c3)n2c1 | inconclusive [activator, single point]
COc1ccccc1/C=C/c1ccc2cccc(O)c2n1 | inconclusive [activator, single point]
CC(C)(C)C(=O)C(Cc1ccccc1Cl)n1cncn1 (configuration not stated) | active: 7.08 µM
Cn1cccc1-c1cc2n(n1)CCC(=O)N2CCCC(=O)NCc1cccc(Cl)c1 | inactive
COc1ccc(N2C(=O)CC(N3CCCCC3)C2=O)cc1 (configuration not stated) | inconclusive [activator, single point]
Cc1onc(-c2c(F)cccc2Cl)c1C(O)c1ccc(F)cc1 (configuration not stated) | inconclusive [activator, single point]
COc1ccc(CNC(=O)c2cccnc2SC)cc1OC | inconclusive [activator, single point]
COC(=O)c1oc2ccc(Br)cc2c1NC(=O)CN1CCN(C)CC1 | inactive
